A compilation of properties of binary mixtures (doi:10.1021/acs.jced.0c00426)
The densities may have been worked out from excess volumes.

Assay: xn = mol fraction of the nth substance listed
Conditions: 101.3 kPa

CNc1ccccc1 + CCCCCCCCn1cc[n+](C)c1.F[B-](F)(F)F
x2 = 0
Conditions	mass density [kg/m3]
298.15 K	984.4
303.15 K	980.3
308.15 K	976.2
313.15 K	972.2
318.15 K	968.1
323.15 K	964

CNc1ccccc1 + CCCCCC[n+]1ccn(C)c1.F[B-](F)(F)F
mass density [kg/m3]
Conditions	x2 = 0	x2 = 0.1058	x2 = 0.2201	x2 = 0.3079	x2 = 0.395	x2 = 0.501	x2 = 0.6034	x2 = 0.7024	x2 = 0.804	x2 = 0.8984
293.15 K	988.4	–	1053.7	1072.1	1086.9	1101.2	–	1122.4	1131.2	1138.7
298.15 K	984.4	1019.5	1050.2	1068.7	–	1098	1109.6	1119.3	1127.9	1135.4
303.15 K	980.3	–	1046.6	1065.1	1080	1094.5	–	1115.9	1124.6	1132.2
308.15 K	–	1011.8	1042.8	–	–	–	1103	1112.6	1121.3	1128.9
313.15 K	972.2	1008.1	1039	1057.8	1073.1	1087.7	1099.8	1109.2	1118.1	–
318.15 K	968.1	–	1035.3	1054.2	1069.5	–	1096.4	1105.8	1114.8	1122.4
323.15 K	–	1000.5	1031.5	1050.6	1066	1080.9	1092.8	1102.5	1111.4	1119

CNc1ccccc1 + CCCC[n+]1ccn(C)c1.F[B-](F)(F)F
mass density [kg/m3]
Conditions	x2 = 0	x2 = 0.0973	x2 = 0.184	x2 = 0.2982	x2 = 0.3909	x2 = 0.5025	x2 = 0.5928	x2 = 0.7005	x2 = 0.7963	x2 = 0.901
293.15 K	988.4	1026.6	1056.5	–	–	1131.5	–	1163.6	–	1191.4
298.15 K	–	–	1053.8	1085.7	1107	1128.9	1144.2	1161	1174.9	1188.8
303.15 K	980.3	1020.1	1050.4	1082.5	1103.9	–	–	–	–	1185.6
308.15 K	976.2	–	1047.1	1079.1	–	1122.6	–	1154.6	–	1182
313.15 K	972.2	1013.5	1043.8	1075.6	1097	1118.9	1134.7	1151.2	–	1178.2
318.15 K	–	1010.2	1040.8	1072.5	1094	–	1131.8	1148.2	1161.9	1175.3
323.15 K	964	1007.3	1037.7	1069.4	–	1113	1129	1145.6	1159.2	1172.7

CCCCCCCCn1cc[n+](C)c1.F[B-](F)(F)F + CNc1ccccc1
mass density [kg/m3]
Conditions	x1 = 0.1032	x1 = 0.2037	x1 = 0.285	x1 = 0.383	x1 = 0.4978	x1 = 0.5939	x1 = 0.7016	x1 = 0.7942	x1 = 0.9002	x1 = 1
293.15 K	1018.8	1039.8	–	1063.9	1074	1080.6	–	1092.1	1097.6	1108.5
298.15 K	–	1036.2	1048.8	1060.4	1070.5	1077.3	1084	1088.8	1094.3	1105
303.15 K	1011.2	1032.5	1045.2	1056.9	1067.1	1073.8	1080.7	–	1091	1101.7
308.15 K	1007.4	1028.9	1041.6	1053.4	–	–	–	1082.3	1087.8	–
313.15 K	1003.7	–	1038	1049.9	1060.3	–	1074	1079	1084.4	1095
318.15 K	1000.1	1021.3	1034.3	–	1057	1063.9	1070.6	1075.8	1081.1	1091.5
323.15 K	996.4	–	1030.7	1042.7	1053.3	1060.7	–	1072.6	1077.8	1088

CCCCCC[n+]1ccn(C)c1.F[B-](F)(F)F + CNc1ccccc1
x1 = 1
Conditions	mass density [kg/m3]
298.15 K	1145.1
303.15 K	1141.7
308.15 K	1137.8
313.15 K	1134.9
318.15 K	1131.7
323.15 K	1127.5

CCCC[n+]1ccn(C)c1.F[B-](F)(F)F + CNc1ccccc1
x1 = 1
Conditions	mass density [kg/m3]
303.15 K	1197.5
313.15 K	1189.5
318.15 K	1186.2
323.15 K	1182.9
